{"source": "PubChem BioAssay (Tox21)", "note": "“And” between values parts separate entries of the source, which are not always exact repeats. Equal values may be shown once. This list was built around the results that the source calls inconclusive (neither active nor inactive); the mix of calls is not that of the screen. Where the call is inconclusive, the potency comes from a doubtful curve fit. Where a structure was tested more than once in an assay, its records may differ in their call. The source made the active and inactive calls. Calls follow the shape of the dose curve; as a rule, active = well fitted cell-killing curve with a large enough effect in the repeat runs; inconclusive = weak or mixed curves, or effect the other way; inactive = flat fitted curve, though single readings scatter. % is scaled to controls: 0 for no effect and ±100 for the full control effect; potency is read from the fitted curve at half-maximal effect; tags tell the direction and shape of the fitted curve.", "data": [{"assay": "qHTS assay to identify small molecule antagonists of the retinoid acid receptor (RAR) signaling pathway - cell viability counter screen (AID 1159551); also: nearly all actives have a fitted effect of over 35% in size", "details": "C3RL4 cells viability, ATP luminescence (CellTiter-Glo), 6 h; series mostly up to 92.4 µM", "from_the_text": "U.S. Tox21 Program National Center for Advancing Translational Sciences [NCATS] NIH Chemical Genomics Center [NCGC] U.S. Environmental Protection Agency [EPA] National Institutes of Environmental Health Sciences [NIEHS] National Toxicology Program [NTP] U.S. Food and Drug Administration [FDA] Tox21 Assay Overview: All-trans Retinoic acid (atRA) is the potent natural metabolite of retinol and plays an important role in normal embryonic development and maintenance of cellular phenotype in adult animals. atRA is the activating ligand for the retinoic acid receptors (RARs) which form heterodimers with retinoid X receptors (RXRs) on the retinoic acid response element (RARE). Through activation of the RAR/RXRs nuclear receptors, atRA regulates the transcription of a large number of protein-coding genes and regulatory RNAs. Intracellular levels of atRA are controlled by the retinol signaling pathway (RSP) that regulates the biosynthesis and catabolism of atRA to maintain physiological levels. Chemicals that interfere with the RSP can cause abnormal intracellular levels of atRA and therefore are potential developmental toxicants. To assess compounds for the potential adverse effect on embryonic development through interfering with retinol signaling, a cell-based RARE luciferase reporter gene assay was used. C3RL4 cell line (OARSA/CFSAN/FDA, Laurel, MD) was used to screen Tox21 10K compound library for identifying inhibitors of the RSP. Also cytotoxicity was assessed by determining the viability of cells based on the quantitation of ATP.\nTox21 Assay Protocol Summary: C3RL4 cells were seeded at 1,000/well in 4 uL of assay medium into white solid 1,536-well tissue culture plates (Greiner Bio-One North America Inc. Monroe, NC) using a Multidrop Combi (Thermo Scientific, Waltham, MA) dispenser. After incubation at 37 C and 5% CO2 for an overnight, 23 nL of compounds dissolved in DMSO, positive control or DMSO only were transferred by a Pintool station (Kalypsys, San Diego, CA). One ul of 1 uM (final concentration) of Retinol was added right after the compound addition by using a Flying Reagent Dispenser (FRD) (Aurora Discovery, San Diego, CA). After 6 hr incubation at 37 C and 5% CO2, 5 uL of CellTiter-Glo reagent (Promega Corporation, Madison, WI) was added to each assay plate using an FRD. Luminescence was quantified on a ViewLux plate reader (PerkinElmer, Waltham, MA) after 30 min incubation at room temperature.", "values": [{"smiles": "O=S1(=O)CC(Cl)(Cl)C(Cl)(Cl)C1", "Potency": "active: 15.4 µM"}, {"smiles": "O=C(Nc1ccccc1SSc1ccccc1NC(=O)c1ccccc1)c1ccccc1", "Potency": "inconclusive: 4.86 µM [cytotoxic, partial curve, poor fit]"}, {"smiles": "O=C1c2ccccc2C(=O)N1SC1CCCCC1", "Potency": "inactive"}, {"smiles": "CC/C(=C(/c1ccc(O)cc1)c1ccc(OCCN(C)C)cc1)c1ccccc1", "Potency": "active: 35.9 µM"}, {"smiles": "CC/C(=C(\\c1ccccc1)c1ccc(OCCN(C)C)cc1)c1ccccc1", "Potency": "active: 61.1 µM [middle of 5 runs]"}, {"smiles": "CCn1c2ccccc2c2cc(N)ccc21", "Potency": "inconclusive: 27 µM [rising, partial curve, poor fit]"}, {"smiles": "C[C@]12CC[C@@H]3c4ccc(O)cc4CC[C@H]3[C@@H]1CC[C@@H]2OC(=O)CCC1CCCC1", "Potency": "inconclusive: 68.6 µM [cytotoxic, single point] and inactive"}, {"smiles": "CC(C)(C)CC(C)(C)c1ccc(OCCOCC[N+](C)(C)Cc2ccccc2)cc1", "Potency": "active: 61.1 µM and inconclusive: 33.5 µM [cytotoxic, single point]"}, {"smiles": "CCOc1nc2cccc(C(=O)OC(C)OC(=O)OC3CCCCC3)c2n1Cc1ccc(-c2ccccc2-c2nn[nH]n2)cc1", "note": "(stereo not given)", "Potency": "inconclusive: 48.5 µM [cytotoxic]"}, {"smiles": "CCN(CC)CCOc1ccc(/C(=C(\\Cl)c2ccccc2)c2ccccc2)cc1", "Potency": "active: 49.6 µM and inconclusive: 33.5 µM [cytotoxic, single point]"}, {"smiles": "CCCCC(CC)COC(=O)c1ccc(O)cc1", "note": "(stereo not given)", "Potency": "inconclusive: 24.2 µM [cytotoxic, partial curve, poor fit] and inconclusive: 54.5 µM [cytotoxic, partial curve]"}, {"smiles": "Cc1ccc(-c2cc(C(F)(F)F)nn2-c2ccc(S(N)(=O)=O)cc2)cc1", "Potency": "active: 60.9 µM and inconclusive: 77 µM [cytotoxic, single point]"}, {"smiles": "CC(=O)N1CCN(c2ccc(OC[C@H]3CO[C@](Cn4ccnc4)(c4ccc(Cl)cc4Cl)O3)cc2)CC1", "Potency": "inconclusive: 68.6 µM [cytotoxic]"}, {"smiles": "CCCCCCOC(=O)c1ccc(O)cc1", "Potency": "inconclusive: 54.5 µM [cytotoxic, partial curve, poor fit]"}, {"smiles": "[O-][n+]1ccccc1SSc1cccc[n+]1[O-]", "Potency": "inconclusive: 0.92 µM [rising, full curve]"}, {"smiles": "CCCCCCCC/C=C/CCCCCCCC1=NCCN1CCO", "Potency": "active: 68.6 µM"}, {"smiles": "CCCCCCCCCCCCCC[P+](CCCC)(CCCC)CCCC", "Potency": "active: 43 µM and active: 43.3 µM"}, {"smiles": "CCCCCCCCCCCC(=O)NCCCN(C)C", "Potency": "inconclusive: 61.1 µM [cytotoxic, partial curve]"}, {"smiles": "CC1=C(/C=C/C(C)=C/C=C/C(C)=C/C=O)C(C)(C)CCC1", "Potency": "inconclusive: 68.2 µM [cytotoxic, single point]"}, {"smiles": "OC1(c2ccc(Cl)c(C(F)(F)F)c2)CCN(CCCC(c2ccc(F)cc2)c2ccc(F)cc2)CC1", "Potency": "inconclusive: 33.5 µM [cytotoxic, single point]"}, {"smiles": "CN(C)CCCN1c2ccccc2Sc2ccc(Cl)cc21", "Potency": "inconclusive: 68.6 µM [cytotoxic]"}, {"smiles": "CCCCc1oc2ccc(NS(C)(=O)=O)cc2c1C(=O)c1ccc(OCCCN(CCCC)CCCC)cc1", "Potency": "active: 26.6 µM"}, {"smiles": "CCC(C)(C)c1ccc(CC(C)CN2C[C@@H](C)O[C@@H](C)C2)cc1", "note": "(stereo not given in full)", "Potency": "inconclusive: 23.7 µM [cytotoxic, partial curve, poor fit]"}, {"smiles": "CCCCCCCCn1sc(Cl)c(Cl)c1=O", "Potency": "active: 13.7 µM"}, {"smiles": "C=CC(=O)OCC(CO)(COCC(COC(=O)C=C)(COC(=O)C=C)COC(=O)C=C)COC(=O)C=C", "Potency": "active: 53.8 µM"}, {"smiles": "CC(C)(c1ccc(O)cc1)c1ccc(O)cc1", "Potency": "inconclusive: 31.2 µM [rising, partial curve, poor fit]"}, {"smiles": "c1ccc(Nc2cccc3ccccc23)cc1", "Potency": "inconclusive: 69.5 µM [cytotoxic, single point] and inconclusive: 68.6 µM [cytotoxic, single point]"}, {"smiles": "Cc1cc(OCCOCC[N+](C)(C)Cc2ccccc2)ccc1C(C)(C)CC(C)(C)C", "Potency": "active: 60.8 µM and active: 29.8 µM"}, {"smiles": "CC(O)(c1ccc(Cl)cc1)c1ccc(Cl)cc1", "Potency": "inconclusive: 54.5 µM [cytotoxic, partial curve]"}, {"smiles": "CCCCCCCCCCCCc1ccc(O)cc1", "Potency": "active: 61.1 µM"}, {"smiles": "CCCCCCCCCCCCc1ccccc1O", "Potency": "inconclusive: 26.9 µM [cytotoxic, partial curve, poor fit] and active: 61.1 µM"}, {"smiles": "Cc1ccc(S(=O)(=O)Oc2ccc(N=Nc3ccc(-c4ccc(N=Nc5c(O)ccc6cc(S(=O)(=O)O)cc(S(=O)(=O)O)c56)c(C)c4)cc3C)cc2)cc1", "Potency": "active: 24.4 µM and active: 20 µM"}, {"smiles": "Cc1cc(CCN2CCN(c3nsc4ccccc34)CC2)cc2c1NC(=O)CC2(C)C", "Potency": "inconclusive: 68.6 µM [cytotoxic]"}, {"smiles": "CCN=C1C=CC(=C(c2ccc(N(CC)CC)cc2)c2ccc(N(CC)CC)cc2)c2ccccc21", "Potency": "active: 24.2 µM"}, {"smiles": "O=C(c1ccc(O)cc1)c1ccc(O)cc1O", "Potency": "inconclusive: 77.7 µM [rising, partial curve, poor fit] and inconclusive: 68.6 µM [rising, partial curve, poor fit]"}, {"smiles": "CN(C)CCCN1c2ccccc2CCc2ccc(Cl)cc21", "Potency": "inconclusive: 61.1 µM [cytotoxic, single point]"}, {"smiles": "CCCCCCCCNC(C)C(O)c1ccc(SC(C)C)cc1", "note": "(stereo not given)", "Potency": "active: 26.6 µM"}, {"smiles": "COc1cc(-c2nc(NC(=O)c3cc4cc(C)cc(C)c4n3CC(=O)O)sc2CCC2CCCCC2)c(OC)cc1Cl", "Potency": "inconclusive: 49.9 µM [rising, partial curve, poor fit]"}, {"smiles": "Nc1cc(Cl)c(-c2cc(Cl)c(N)cc2Cl)cc1Cl", "Potency": "active: 30.6 µM and inconclusive: 48.6 µM [cytotoxic, partial curve]"}, {"smiles": "Clc1ccc(C(c2ccccc2Cl)C(Cl)Cl)cc1", "note": "(stereo not given)", "Potency": "inconclusive: 68.6 µM [cytotoxic]"}]}]}
